The whole screen tested about 350,000 compounds, of which about 31,000 (8.9%) were called active. The shares of active, inactive and inconclusive entries below differ from those in the screen. Calls come from the whole dose curve; as a rule, active = well fitted inhibition curve with a large enough effect; inconclusive = small, poorly fitted or top-dose-only effect; inactive = no such curve, though single readings can be large or run the other way. A potency beside an inconclusive call is a rough fit, not a confirmed value.
The compounds below were run against Histone-lysine N-methyltransferase EHMT2 (Homo sapiens) (UniProt Q96KQ7) (assay: qHTS Assay for Inhibitors of Histone Lysine Methyltransferase G9a). Conditions: G9a H3K9 monomethylation, AlphaScreen, 2 h; activity, negative = inhibition: at 59 µM (top of the series) unless noted.
How it was run: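 Methyltransferase reactions run at room temperature for 2 h (20 nM enzyme, 500 nM biotin-H3K9 peptide, 20 uM SAM) after a 15 min compound preincubation; product detected by AlphaScreen beads and anti-H3K9me1 antibody.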
% is set by controls: 0 for no effect and ±100 for the full control effect; potency is the fitted concentration of half-maximal effect; tags give direction and shape of the fitted curve.
Note: nearly all actives have a fitted effect of over 75% in size.

Sequence of UniProt Q96KQ7 (Q96KQ7 whole entry, looked up): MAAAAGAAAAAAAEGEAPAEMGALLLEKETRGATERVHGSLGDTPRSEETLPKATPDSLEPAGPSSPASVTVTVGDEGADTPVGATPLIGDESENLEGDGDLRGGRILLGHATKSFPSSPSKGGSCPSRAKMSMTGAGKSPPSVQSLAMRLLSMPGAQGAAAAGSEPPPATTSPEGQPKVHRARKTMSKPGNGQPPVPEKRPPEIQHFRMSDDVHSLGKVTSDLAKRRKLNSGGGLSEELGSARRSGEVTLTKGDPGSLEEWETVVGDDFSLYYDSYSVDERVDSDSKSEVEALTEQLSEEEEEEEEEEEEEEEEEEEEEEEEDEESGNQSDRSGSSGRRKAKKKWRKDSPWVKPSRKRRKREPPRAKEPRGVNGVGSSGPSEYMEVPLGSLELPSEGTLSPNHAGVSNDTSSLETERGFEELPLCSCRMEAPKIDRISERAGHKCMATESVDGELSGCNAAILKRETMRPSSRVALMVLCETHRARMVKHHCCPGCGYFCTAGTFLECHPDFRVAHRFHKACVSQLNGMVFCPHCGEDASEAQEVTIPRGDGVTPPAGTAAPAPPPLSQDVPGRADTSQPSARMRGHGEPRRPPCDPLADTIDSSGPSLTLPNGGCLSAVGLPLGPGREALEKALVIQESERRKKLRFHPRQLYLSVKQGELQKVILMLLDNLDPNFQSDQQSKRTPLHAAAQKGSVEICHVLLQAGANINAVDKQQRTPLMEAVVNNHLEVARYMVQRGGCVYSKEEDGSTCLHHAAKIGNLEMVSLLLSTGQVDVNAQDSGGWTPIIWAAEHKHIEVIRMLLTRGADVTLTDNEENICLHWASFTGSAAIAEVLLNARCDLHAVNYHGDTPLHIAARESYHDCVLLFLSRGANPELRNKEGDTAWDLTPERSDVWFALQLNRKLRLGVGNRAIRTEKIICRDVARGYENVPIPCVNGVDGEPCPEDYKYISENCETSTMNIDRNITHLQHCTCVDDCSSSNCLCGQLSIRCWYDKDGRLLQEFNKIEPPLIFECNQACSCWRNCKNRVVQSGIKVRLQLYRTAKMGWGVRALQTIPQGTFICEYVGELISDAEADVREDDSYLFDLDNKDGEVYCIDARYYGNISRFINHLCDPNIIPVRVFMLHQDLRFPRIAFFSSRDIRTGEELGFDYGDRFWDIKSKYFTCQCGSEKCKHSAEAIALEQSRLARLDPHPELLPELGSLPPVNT

Q: With CCc1ccccc1NC(=O)C(CC)Sc1ncnc2c1sc1ccccc12 (stereo not drawn) as the compound, how does the Potency read?
A: inactive

Q: CCN(CC)CCC(C)OC(c1ccccc1)c1ccccc1 (stereo not drawn) was tested. Which Potency did it give?
A: inconclusive: 39.8 µM [inhibitor, single point]

Q: Which Potency does the source give for CCC(Oc1ccccc1)C(=O)Nc1ccc(S(=O)(=O)Nc2cnc3ccccc3n2)cc1 (stereo not drawn) here?
A: inactive

Q: How did the Potency turn out when COc1cc(/C=C2/C(=N)N3C(=NC2=O)SN=C3S(=O)(=O)C(C)C)ccc1OC(=O)c1ccco1 was run?
A: active: 39.8 µM

Q: How did the Potency turn out when CC(OC(=O)C1CCN(S(=O)(=O)c2ccc(C(C)(C)C)cc2)CC1)C(=O)N1CCOCC1 (stereo not drawn) was run?
A: active: 17.8 µM

Q: COc1ccc(NC(=S)Nc2ccc(OCc3ccccc3)cc2)c(OC)c1 was tested. Which Potency did it give?
A: inconclusive: 39.8 µM [inhibitor, single point]

Q: For Nc1ncc(Br)cc1N=Cc1ccccc1, which Potency is on record?
A: inconclusive: 39.8 µM [inhibitor, single point]

Q: With CCOc1ccc(S(=O)(=O)N2CCN(c3cc(Cl)ccc3Cl)CC2)c2ccccc12 as the compound, how does the Potency read?
A: inactive

Q: With O=c1[nH]c2ccc(NCc3ccc(-c4cccc(Cl)c4)o3)cc2[nH]1 as the compound, how does the Potency read?
A: inconclusive: 7.08 µM [inhibitor, partial curve, poor fit]

Q: Which Potency does the source give for COc1ccc(/C(=N/O)C(C)(C)NO)cc1 here?
A: active: 12.6 µM

Q: For NC(=O)CC(NC(=O)Cc1ccc(Br)cc1)c1ccc(NC2CCN(Cc3ccccc3)CC2)c([N+](=O)[O-])c1 (stereo not drawn), which Potency is on record?
A: inconclusive: 70.8 µM [inhibitor, single point]

Q: How did the activity, negative = inhibition turn out when COc1ccccc1CNc1cc(-c2ccccc2C)ncn1 was run?
A: inactive: 6.97% [at 0.501 µM]

Q: With COc1ccc(NC(=O)c2cc3n(n2)C(C(F)(F)F)CC(c2ccco2)N3)cc1 (stereo not drawn) as the compound, how does the Potency read?
A: inconclusive: 39.8 µM [inhibitor, single point]

Q: How did the Potency turn out when COc1ccc(OCc2nc3ccccc3n2C(C)c2ccccc2)cc1 (stereo not drawn) was run?
A: inconclusive: 5.62 µM [inhibitor, partial curve, poor fit]

Q: Which Potency does the source give for Cc1ccnc(NS(=O)(=O)c2ccc(NC(=O)C(C)(C)Oc3ccc(Cl)cc3)cc2)n1 here?
A: inconclusive: 39.8 µM [inhibitor, single point]

Q: CN(C)c1oc(-c2ccccc2Cl)nc1C#N was tested. Which activity, negative = inhibition did it give?
A: inconclusive: -66.2% [inhibitor]

Q: With O=C1C2C3C=CC(C4CC34)C2C(=O)N1/N=C/c1ccc([N+](=O)[O-])o1 (stereo not drawn) as the compound, how does the Potency read?
A: inconclusive: 50.1 µM [inhibitor, partial curve]

Q: With CCNC(=S)N1CCN(CCN=CC2=C(O)CC(C)(C)CC2=O)CC1 as the compound, how does the Potency read?
A: inactive

Q: Which Potency does the source give for Cc1ccc(CNC(=O)c2ccc(S(=O)(=O)N(C)C)cc2)n1C here?
A: inconclusive: 100 µM [inhibitor, single point]

Q: Which Potency does the source give for CCc1nccn1CCC(=O)NC1CC(C)(C)Cc2c1cnn2-c1ccc(C)cc1 (stereo not drawn) here?
A: inconclusive: 56.2 µM [inhibitor, partial curve, poor fit]

Q: CCOc1ccccc1OCC(=O)Nc1cc(S(=O)(=O)N2CCCCC2)ccc1N1CCN(CC)CC1 was tested. Which Potency did it give?
A: active: 3.55 µM

Q: Cc1ccc(-c2nc(-c3ccc(Cl)cc3)sc2CC(=O)O)c(C)c1 was tested. Which Potency did it give?
A: inactive

Q: Which Potency does the source give for O=C(Nc1ccc(Cl)cc1F)c1oc(=O)c2ccccc2c1-c1ccccc1 here?
A: inactive

Q: For COc1cccc(C(=O)NC2CC3CCCC(C2)N3CC(=O)Nc2ccccc2)c1 (stereo not drawn), which activity, negative = inhibition is on record?
A: inactive: -14.6% [at 12.7 µM]

Q: How did the Potency turn out when CCC1CSC(=Nc2ccc(C)cc2)N1C(=O)CN1C(=O)NC2(CCCC2)C1=O (stereo not drawn) was run?
A: inconclusive: 89.1 µM [inhibitor, single point]

Q: How did the Potency turn out when CC(=O)Nc1ccc(S(=O)(=O)N2CCN(c3ccc([N+](=O)[O-])c(NCCN4CCOCC4)c3)CC2)cc1 was run?
A: active: 70.8 µM

Q: With Cc1cc2oc(=O)cc(C)c2c(=O)o1 as the compound, how does the Potency read?
A: inconclusive: 3.55 µM [inhibitor, partial curve, poor fit]

Q: With C=C(C)CSc1cc(C)c(C#N)c2nc3ccccc3n12 as the compound, how does the Potency read?
A: active: 1.41 µM

Q: C=C(C)Cn1c(SCC(=O)c2ccc(OC)cc2)nc2sc3c(c2c1=O)CCCC3 was tested. Which Potency did it give?
A: inactive

Q: Cc1cc(Br)ccc1NC(=O)C(Cc1ccccc1)NS(=O)(=O)c1ccc(Br)s1 (stereo not drawn) was tested. Which Potency did it give?
A: inactive

Q: Which Potency does the source give for CCOc1cc(C2Nc3ccccc3-c3nnc(SCc4ccccc4)nc3O2)ccc1OC (stereo not drawn) here?
A: inactive

Q: COc1ccc(S(=O)(=O)Nc2ccc(S(=O)(=O)N3CCOCC3)cc2)cc1 was tested. Which Potency did it give?
A: inactive

Q: Which Potency does the source give for O=C1CSC(=S)N1/N=C/c1ccc(O)c([N+](=O)[O-])c1 here?
A: active: 14.1 µM

Q: Which Potency does the source give for C#CCOc1ccc(Br)cc1/C=N/O here?
A: inconclusive: 12.6 µM [inhibitor, partial curve, poor fit]

Q: For Fc1ccccc1/C=N/n1c(C2CCCCC2)n[nH]c1=S, which Potency is on record?
A: active: 25.1 µM

Q: COC(=O)c1c(N)n(-c2ccc(N3CCOCC3)cc2)c2nc3ccccc3nc12 was tested. Which Potency did it give?
A: active: 10 µM

Q: How did the Potency turn out when Cc1ccc(OCC(=O)Nc2cccc(OCc3cc(=O)n4ccccc4n3)c2)cc1C was run?
A: inactive

Q: With N#C/C(=C/c1ccccc1OCc1ccc(F)cc1)c1ccc(C(=O)O)cc1 as the compound, how does the Potency read?
A: inconclusive: 6.31 µM [inhibitor, single point]

Q: How did the Potency turn out when Cc1csc(NC(=O)CSC2=NS(=O)(=O)c3ccccc3N2)n1 was run?
A: inconclusive: 89.1 µM [inhibitor, single point]

Q: Nc1nc(Nc2cccc(C(F)(F)F)c2)sc1C(=O)c1ccccc1 was tested. Which Potency did it give?
A: inactive

Q: With COCCNC(=O)CSc1cc(-c2ccccc2)c2ccc(OC)cc2n1 as the compound, how does the Potency read?
A: active: 22.4 µM

Q: Which Potency does the source give for COc1cccc(C(=O)Nc2ccc(NC(=O)C(C)C)nc2)c1 here?
A: inconclusive: 56.2 µM [inhibitor, single point]

Q: O=C(c1ccco1)N1CCN(Cc2nnnn2CC2CCCO2)CC1 (stereo not drawn) was tested. Which Potency did it give?
A: inconclusive: 15.8 µM [inhibitor, partial curve, poor fit]

Q: O=S(=O)(c1ccc(Br)cc1)c1nc(-c2ccccc2)oc1NCc1cccnc1 was tested. Which Potency did it give?
A: inconclusive: 56.2 µM [inhibitor, partial curve, poor fit]

Q: O=C(c1ccccc1)N1CCN(C2CCCCCC2)CC1 was tested. Which Potency did it give?
A: inconclusive: 2.24 µM [inhibitor, partial curve, poor fit]

Q: Which Potency does the source give for COc1ccccc1NC(=O)CCN1CC(C)OC(C)C1 (stereo not drawn) here?
A: inactive

Q: For Cc1ccc(NCc2ccco2)cc1C, which Potency is on record?
A: active: 4.47 µM

Q: Cn1cc(CC(=O)N2CCN(c3ccc(Cl)cc3)CC2)c2ccccc21 was tested. Which activity, negative = inhibition did it give?
A: inconclusive: -74.5% [inhibitor]

Q: Which Potency does the source give for COc1cccc(CNCCNC(=O)c2ccco2)c1OC here?
A: active: 11.2 µM

Q: CC1(C)Cc2cccc(Oc3ccc(S(=O)(=O)N4CCCC4)cn3)c2O1 was tested. Which Potency did it give?
A: inactive

Q: For O=C(CSC1CC(=O)N(CCc2ccccc2)C1=O)Nc1cccc(Cl)c1 (stereo not drawn), which Potency is on record?
A: inconclusive: 2.24 µM [inhibitor, full curve, poor fit]

Q: COc1cc(/C=C2\SC(=O)N(CCNC(=O)c3sc4cc(F)ccc4c3Cl)C2=O)cc(OC)c1OC was tested. Which Potency did it give?
A: inconclusive: 28.2 µM [inhibitor, partial curve, poor fit]

Q: Which Potency does the source give for CCn1c(/C=C/c2ccc(O)cc2)nc2ccccc2c1=O here?
A: inactive

Q: Which Potency does the source give for O=C(COC(=O)c1cccs1)NCc1ccco1 here?
A: inconclusive: 79.4 µM [inhibitor, partial curve, poor fit]

Q: Which Potency does the source give for O=C(CCC1CCCCC1)Nc1c2c(nn1-c1ccc(F)cc1)CS(=O)(=O)C2 here?
A: inactive

Q: How did the Potency turn out when COc1ccc(Cl)c2c1[nH]c1nc(SCc3cccnc3)nnc12 was run?
A: inconclusive: 44.7 µM [inhibitor, partial curve]

Q: For Cn1c(CNC(=O)CSc2n[nH]c(-c3ccccc3Cl)n2)nc2ccccc21, which Potency is on record?
A: active: 28.2 µM

Q: How did the Potency turn out when O=C(CN1C(=O)NC2(CCCC2)C1=O)Nc1ccc(F)c(Cl)c1 was run?
A: inconclusive: 7.94 µM [inhibitor, full curve]

Q: For CC1(C)CC(=O)CC(=NCC(=O)O)C1, which activity, negative = inhibition is on record?
A: inconclusive: -53.9% [inhibitor]

Q: How did the Potency turn out when O=C(O)c1cc(Nc2cc(Cl)c3nonc3c2[N+](=O)[O-])ccc1O was run?
A: active: 35.5 µM

Q: O=C(c1ccc(NS(=O)(=O)c2ccc3[nH]c(=O)[nH]c3c2)cc1)N1CCCCC1 was tested. Which Potency did it give?
A: inconclusive: 50.1 µM [inhibitor, partial curve, poor fit]

Q: Which Potency does the source give for COc1cc2c(=O)c(S(=O)(=O)c3ccc(F)cc3)cn(Cc3ccccc3C)c2cc1OC here?
A: inconclusive: 11.2 µM [inhibitor, partial curve, poor fit]

Q: With COc1ccc(N2CCN(C(=O)CNC(=O)c3nn(-c4ccc(OC)cc4)c(=O)c4ccccc34)CC2)cc1 as the compound, how does the Potency read?
A: inconclusive: 79.4 µM [inhibitor, partial curve, poor fit]

Q: O=C(NCc1cccs1)C(=O)c1cn(CC(=O)N2CCCC2)c2ccccc12 was tested. Which Potency did it give?
A: inconclusive: 89.1 µM [inhibitor, single point]

Q: O=C(N/N=C(\c1ccccc1)c1cccnc1)c1cc(O)ccc1O was tested. Which Potency did it give?
A: active: 10 µM

Q: Which Potency does the source give for CCOc1ccc(C(=O)c2cn(CC(=O)Nc3ccc4c(c3)OCO4)c3ccc(OC)cc3c2=O)cc1 here?
A: inconclusive: 7.94 µM [inhibitor, partial curve, poor fit]

Q: For CC1=C(C#N)C(C)C2=C(CC(C)(C)CC2=O)N1 (stereo not drawn), which Potency is on record?
A: inactive

Q: Which Potency does the source give for O=C(NCC(c1cccnc1)N1CCN(c2ccccc2F)CC1)C(=O)Nc1ccc(F)cc1F (stereo not drawn) here?
A: inactive

Q: For COc1ccc(-n2c(Cc3cccn3C)nnc2SCC(=O)NC2CCCCC2)cc1, which Potency is on record?
A: inconclusive: 44.7 µM [inhibitor, partial curve, poor fit]

Q: How did the Potency turn out when C=CCc1cccc(/C=N/NC(=O)C(C)Nc2cccc(C)c2)c1O (stereo not drawn) was run?
A: inactive

Q: Cc1ccc(S(=O)(=O)N2CCOC23CCN(C(=O)C(=O)NCCC(C)C)CC3)cc1 was tested. Which Potency did it give?
A: inactive

Q: How did the Potency turn out when O=C(O)c1cccc(C(=O)O)n1 was run?
A: inconclusive: 0.794 µM [inhibitor, full curve, poor fit]

Q: Cc1ccc(Cl)cc1NC(=O)CSc1nc2ccccc2c2nc(-c3ccccc3)nn12 was tested. Which Potency did it give?
A: inactive
